This passage reports binding signal results from publication PMC7819943, “Rice protein-binding microarrays: a tool to detect cis-acting elements near promoter regions in rice”.

This is one part of the list.

This assay has as its target T1, OsWOX13 (Oryza sativa, UniProt Q5QMM3 1-267).
T1 sequence: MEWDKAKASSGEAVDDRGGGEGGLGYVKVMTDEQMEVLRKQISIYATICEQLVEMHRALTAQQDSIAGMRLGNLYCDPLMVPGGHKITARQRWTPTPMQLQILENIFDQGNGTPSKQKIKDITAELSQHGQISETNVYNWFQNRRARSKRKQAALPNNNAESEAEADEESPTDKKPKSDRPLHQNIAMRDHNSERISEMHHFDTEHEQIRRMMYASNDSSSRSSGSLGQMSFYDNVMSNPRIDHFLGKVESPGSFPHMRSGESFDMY
Nature of the assay: protein-binding microarray (RPBM); PBS, 2% BSA, 51.3 ng/ul salmon testes DNA, 50 uM zinc acetate, 200 nM TF, 25 C, 1 h; high values mean tight binding. As to conditions: protein: recombinant; tags: N-terminal polyhistidine and DsRed monomer fusion (pET32a); label: CyDye5-dUTP incorporated in the synthesized complementary strand; 3' TTTTT single-stranded linker to array surface; dsDNA, one strand shown. Summed up:
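The binding signal is fluorescence intensity per array feature (arbitrary units). Readings came from an Axon 4000B scanner after a washed, 2% BSA-blocked, double-stranded custom Agilent array had been incubated for 1 h at 25 °C with 200 nM protein and 50 µM zinc acetate. The protein was a Ni–NTA-purified transcription factor fused N-terminally to polyhistidine and DsRed, expressed in E. coli BL21-CodonPlus.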
As for “GTTGAGTGGTAGTTTGATTGGAAAAGTGCCAAATAACCCTCGGAGTCACCTAGTGCAG”, the binding signal is 40100 fluorescence intensity (a.u.). Turning to “GTATCTATCTGTCATCAGATTGACGTGGTACACAATTCTTCGGAGTCACCTAGTGCAG”, the binding signal was 7170 fluorescence intensity (a.u.). In the case of “TTGACGAAATGGGATGTACTGATTAGGGCTGCTAAAATCGCGGAGTCACCTAGTGCAG”, the binding signal is 12700 fluorescence intensity (a.u.). With “TAGAATTTATTTAATAATTAAAGTAAGTGTTTGAATAGAACGGAGTCACCTAGTGCAG”, the binding signal was 3240 fluorescence intensity (a.u.). Take “CAAAATTTGACAATGCCAAAACTTGGTATGGTTTAAAATGCGGAGTCACCTAGTGCAG”: the binding signal was 9370 fluorescence intensity (a.u.). With “GGCTTGATTTAATTTGTTTTATGCTAGCGAGAGAATACGGCGGAGTCACCTAGTGCAG”, the binding signal was 27200 fluorescence intensity (a.u.). On to “AAATTTAAGTAATTATTAATTATTTTCCTACCATTTGATTCGGAGTCACCTAGTGCAG”, for which the binding signal was 25800 fluorescence intensity (a.u.). In the case of “ATTAATTAAGGCATAAGTACACCACATTCCACGTCACTACCGGAGTCACCTAGTGCAG”, the binding signal was 8290 fluorescence intensity (a.u.). Turning to “CCAGAAGCTTGATTTGCAGCTGAAATGTATCCAAATTTGGCGGAGTCACCTAGTGCAG”, the binding signal was 8230 fluorescence intensity (a.u.). As for “GAGAATTTGCATAGACAGATCTTCCTCCTTTCGTGCAAGACGGAGTCACCTAGTGCAG”, the binding signal is 4290 fluorescence intensity (a.u.).

For the sequence “AACTAAAAGTTAATTATTCCAATTCCCGCTCACCCACCTACGGAGTCACCTAGTGCAG”, the binding signal is 5770 fluorescence intensity (a.u.). For “GGCTCTTTGATTCAAATGATTGAAGCTTTTCAAATCCTATCGGAGTCACCTAGTGCAG”, the binding signal was 28300 fluorescence intensity (a.u.). As for “TCAAGATAATCAACGGTCCAAACAGTGCTACAGGAACACACGGAGTCACCTAGTGCAG”, the binding signal is 4230 fluorescence intensity (a.u.).

Regarding “GGGGACCAAGATTATGATTGTGTACAAAATTCGTGCTGACCGGAGTCACCTAGTGCAG”, the binding signal was 4020 fluorescence intensity (a.u.). In the case of “ATGAGTGATTGATTTCTTGTTTATAGGAGTGGGTTGTTCACGGAGTCACCTAGTGCAG”, the binding signal is 42500 fluorescence intensity (a.u.). On to “GTATACTCTGTAATTACAAGCAGTAGATGGTAGGTGTATGCGGAGTCACCTAGTGCAG”, for which the binding signal is 4450 fluorescence intensity (a.u.).

Take “ATAAAATTTTATGATATATAGATAATAATTTTACTTGCAACGGAGTCACCTAGTGCAG”: the binding signal is 5640 fluorescence intensity (a.u.). The value for “TTTGGATCGAACAGTGATTGGATCATGAGCTATGACCCTTCGGAGTCACCTAGTGCAG” was 22800 fluorescence intensity (a.u.); that for “GCATTAATTTGGAGTGCACAATACTGGATTGAAATAAAGACGGAGTCACCTAGTGCAG” was 5980 fluorescence intensity (a.u.); that for “ATAAACCTTAACTGCAATCTGTTTTACATATTACAGTAGTCGGAGTCACCTAGTGCAG” was 8680 fluorescence intensity (a.u.).

For the sequence “CTCACTCCTAATTACTAAATATTCCACCTCAGCAATCTTCCGGAGTCACCTAGTGCAG”, the binding signal was 6450 fluorescence intensity (a.u.). With “ATTTTCAATCAATATGAACAATTTTACTAAATCTGACTTTCGGAGTCACCTAGTGCAG”, the binding signal is 19000 fluorescence intensity (a.u.).

With “ATCTATAATTAGAGAGAACGCAACTGAACCGAAAATCGTACGGAGTCACCTAGTGCAG”, the binding signal was 6660 fluorescence intensity (a.u.).

With “ATAAAATTAAATCAACTTTAAACTTGCATTAACTGACGAACGGAGTCACCTAGTGCAG”, the binding signal is 15300 fluorescence intensity (a.u.). For the sequence “AAAAGTTTGAATTAGAATAATTGATATGACAAAACGTACTCGGAGTCACCTAGTGCAG”, the binding signal is 9920 fluorescence intensity (a.u.).

For the sequence “GAAACTAACTTTGGTGATGATTTACGCACATGAGACAAAGCGGAGTCACCTAGTGCAG”, the binding signal was 7500 fluorescence intensity (a.u.). The value for “GCTATTATTCTTTAATGACTGCCATTTCAGAATCTATGCACGGAGTCACCTAGTGCAG” was 3970 fluorescence intensity (a.u.); that for “AGTAATTATTTATTCTTTTCATATCATTTGATTCATTGTTCGGAGTCACCTAGTGCAG” was 17900 fluorescence intensity (a.u.); that for “GGTTATTTGATTGATTTGGGCCGGCTGTCCACGAAAATCACGGAGTCACCTAGTGCAG” was 36700 fluorescence intensity (a.u.). Regarding “CACAGATACCCATGATTGCACTTATTTTGTGACGGGTGTACGGAGTCACCTAGTGCAG”, the binding signal is 7850 fluorescence intensity (a.u.). In the case of “AACTATGGTATAATTGAAGTGTAATTATATTGTAATTGCACGGAGTCACCTAGTGCAG”, the binding signal is 20800 fluorescence intensity (a.u.).

For the sequence “TTGCTAAATTTAGTCAATACATAAGAAATTCTGTCAAAATCGGAGTCACCTAGTGCAG”, the binding signal is 4800 fluorescence intensity (a.u.).

“GATATTTTGTTTATTTGTGTTCCTTCTTAAGTCCTTTATTCGGAGTCACCTAGTGCAG”: the binding signal was 3410 fluorescence intensity (a.u.). As to “CAGATATAAATTGAGCGACTTCCAGAGTGATCAGCACTACCGGAGTCACCTAGTGCAG”, the binding signal is 7440 fluorescence intensity (a.u.).

Turning to “ACCAATTATAAACACAAGTTAATGGGCAAATGACATGGAACGGAGTCACCTAGTGCAG”, the binding signal was 11500 fluorescence intensity (a.u.). For “CTATGATTATGGCTTTGTACCTGTCACGCTGACATCACTCCGGAGTCACCTAGTGCAG”, the binding signal was 37300 fluorescence intensity (a.u.). As to “CCTGATGAACAGTATAGGTGGTAAGATAAAATTTGAGCTCCGGAGTCACCTAGTGCAG”, the binding signal is 3420 fluorescence intensity (a.u.). Take “TAATTGATTAATTAATAATACTCCAGCTGCAGCAACGGCACGGAGTCACCTAGTGCAG”: the binding signal was 47300 fluorescence intensity (a.u.). For “CGGAAATAATTTTGGACATCATATCATTTGCCGGCAATTACGGAGTCACCTAGTGCAG”, the binding signal was 3450 fluorescence intensity (a.u.). On to “TTCCACCAAATTACCAAATCATTAGCACAGGCCAGCTCGACGGAGTCACCTAGTGCAG”, for which the binding signal is 12100 fluorescence intensity (a.u.). In the case of “CATCAATAATAGAAATTCAATCGTTTACCCTTCAGTTTATCGGAGTCACCTAGTGCAG”, the binding signal is 7050 fluorescence intensity (a.u.). “TTTTATGAGAGATTTGATAATTTATCACTTATTTAAGTGGCGGAGTCACCTAGTGCAG”: the binding signal is 3480 fluorescence intensity (a.u.). “AAAATGATTTTCTTTTCAAGAGGTTGAAGCTCATGTTAGACGGAGTCACCTAGTGCAG”: the binding signal is 6720 fluorescence intensity (a.u.). As to “ACTGCAGTAACAGACAGATACATGGATCGATGCACTTGATCGGAGTCACCTAGTGCAG”, the binding signal was 3620 fluorescence intensity (a.u.).

Take “AGTAGATTAATGGTGGAAGAAATTAAGGAGGCTATGACACCGGAGTCACCTAGTGCAG”: the binding signal is 7500 fluorescence intensity (a.u.). For “AATGATTGAAATCGGGGCGCAAATTATTGCGATTATTATTCGGAGTCACCTAGTGCAG”, the binding signal is 49400 fluorescence intensity (a.u.). In the case of “TTTGTCCTAATTAAGTGCTACGGTTACTTCGCATCTAGTTCGGAGTCACCTAGTGCAG”, the binding signal is 5410 fluorescence intensity (a.u.). Consider “CTAATTATTTAGTCTCTTTATATTTATAAAATGCACATACCGGAGTCACCTAGTGCAG”, for which the binding signal was 3450 fluorescence intensity (a.u.). “ACTGCTCGATTAATTGGTACTGATACTGTCCGCTCCATGACGGAGTCACCTAGTGCAG”: the binding signal is 20700 fluorescence intensity (a.u.). For the sequence “GATAACATATTCCTAACAGATGGAGCAAGCCCAGCAGTATCGGAGTCACCTAGTGCAG”, the binding signal was 4270 fluorescence intensity (a.u.).

“TGAACTAAACAGTGCCTAATTTATCGGACTAATCGGCCGTCGGAGTCACCTAGTGCAG”: the binding signal is 4480 fluorescence intensity (a.u.). Regarding “ATTATACTTATATTAATTTAGATGAATGGGCAAATAGCATCGGAGTCACCTAGTGCAG”, the binding signal is 5080 fluorescence intensity (a.u.). As for “TCCTTGACTGCTTCCTTTCTCTTGTAAAGTAAATGTTAGCCGGAGTCACCTAGTGCAG”, the binding signal is 17000 fluorescence intensity (a.u.). The value for “GGTTCACCAATCACCAGTAGTGAGCCCATTCTATCTTGTACGGAGTCACCTAGTGCAG” was 6580 fluorescence intensity (a.u.).
